# Screen size: about 390,000 compounds; about 930 (0.24%) were called active. The inconclusive results got no clear call from the source; some entries with a clear call stand among them for comparison. Calls come from the whole dose curve; as a rule, active = well fitted activation curve with a large enough effect; inconclusive = small, poorly fitted or top-dose-only effect; inactive = no such curve, though single readings can be large or run the other way. Potencies beside an inconclusive call are fits to weak or partial responses and may not hold up.
# Assay: qHTS for Suppressors of FUS Proteinopathy: Primary screen using FUS-linked yeast assay; note: nearly all actives have a fitted effect of over 55% in size;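 for growth rescue (activation): plate controls were DMSO vehicle for no effect and reference control for full effect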
# Conditions: S. cerevisiae FUS-expressing, OD600, 24 h; Potency: growth rescue; growth rescue (activation): at 76.6 µM (top of the series)
# In short: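 Compound concentration series was pinned onto galactose-induced FUS-expressing yeast seeded at OD 0.005. Plates sat 24hr at 30C; absorbance at 600 nm gave growth. DMSO served as background control.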
# Potency is the fitted concentration of half-maximal effect; tags give direction and shape of the fitted curve.
Compound,Potency,growth rescue (activation)
CCOc1cccc2sc(N(CCN(C)C)C(=O)/C=C/c3cccs3)nc12,"inconclusive: 39.8 µM [activator, partial curve, poor fit]",–
O=[N+]([O-])c1cc(/C=N/n2c(-c3cccnc3)n[nH]c2=S)ccc1Cl,–,inactive: 26.3%
COc1ccc(CCNC(=O)Cn2c(=O)n(-c3ccc(F)cc3)c(=O)c3sccc32)cc1OC,–,inactive: -2.47%
CCc1c(O)nc(SCC(=O)Nc2ccc(Cl)cc2)n(-c2ccccc2)c1=O,"inconclusive: 39.8 µM [activator, single point]",–
COc1ccc(OCC(=O)OC2CCN(C)CC2)cc1,–,inactive: -12.8%
CCn1c(COc2cccc(C)c2)nnc1SCC(=O)CC(=O)Nc1ccccc1OC,"inconclusive: 39.8 µM [activator, partial curve, poor fit]",–
COc1ccc(-c2csc(Nc3ccc(C)cn3)n2)cc1,–,inactive: 6.06%
Cc1ccccc1CNC(=O)c1cnc2sc(N3CCOCC3)nn2c1=O,–,inactive: 16.5%
Cc1cccc(C2=NN(c3ccccc3)[C@@H](C(=O)N3CCOC3=O)[C@@H]2c2ccc(Cl)cc2)c1,"inconclusive: 20 µM [activator, partial curve, poor fit]",–
Cc1cccc(NS(=O)(=O)c2cc3c4c(c2)CC(=O)N4CCC3)c1C,"inconclusive: 44.7 µM [activator, single point]",–
CCOC(=O)[C@]12CCCC=C1N(Cc1ccc3c(c1)OCO3)C(=O)[C@H](CC(=O)NCc1ccc(OC)c(OC)c1)C2,"inconclusive: 11.2 µM [activator, partial curve]",–
Cc1ccc(S(=O)(=O)N(C)C)cc1NC(=O)COC(=O)Cc1n[nH]c(=O)c2ccccc12,"inconclusive: 31.6 µM [activator, partial curve, poor fit]",–
CCOC(=O)N1CCN(S(=O)(=O)c2ccc(C(=O)NNc3nc4c(C)cc(C)cc4s3)cc2)CC1,"inconclusive: 17.8 µM [activator, single point]",–
CC1(C(=O)Nc2nnc(SCc3ccccc3)s2)Cc2ccccc2C(=O)O1 (stereo not drawn),"inconclusive: 5.62 µM [activator, partial curve, poor fit]",–
COc1ccc(N2C(=O)C(Cl)=C(Nc3c(C)n(C)n(-c4ccccc4)c3=O)C2=O)cc1,"inconclusive: 50.1 µM [activator, single point]",–
O=C(O)CSCC(=O)N(Cc1ccccc1)c1nc(-c2ccccc2)c(-c2ccccc2)s1,"inconclusive: 28.2 µM [activator, partial curve, poor fit]",–
O=C(CSc1nc2ccccc2nc1Cc1ccccc1)NCc1ccccc1Cl,–,inactive: 9.87%
COc1ccc2c(c1)CCc1cc(C(=O)O)sc1-2,–,inactive: -27.3%
COc1ccc(-c2cc(C(=O)Nc3nc4ccccc4s3)c3ccccc3n2)cc1OC,"inconclusive: 39.8 µM [activator, single point]",–
CC(=O)N1CCc2cc(S(=O)(=O)NC(CC(C)C)C(=O)Nc3ccc4c(c3)OCCO4)ccc21 (stereo not drawn),"inconclusive: 44.7 µM [activator, single point]",–
O=C(O)CCCC(=O)N1CCc2cc(S(=O)(=O)N3CCc4ccccc43)ccc21,"inconclusive: 50.1 µM [activator, single point]",–
Cc1ccc(CNC(=O)CCCCCn2c(=O)[nH]c3ccccc3c2=O)cc1,–,inactive: -5.29%

Compound,Potency,growth rescue (activation)
O=C(OCc1ccccc1)N1CCOCCOCCN(C(=O)OCc2ccccc2)CCOCCOCC1,"inconclusive: 12.6 µM [activator, partial curve, poor fit]",–
CCN(CC)S(=O)(=O)c1ccc(N2CCOCC2)c(NC(=O)C2CCCO2)c1 (stereo not drawn),"inconclusive: 11.2 µM [activator, single point]",–
Cc1ccc(C)c(N2CCN(C(=O)c3ccc(NC(=O)c4nsc5ccccc45)cc3)CC2)c1,"inconclusive: 50.1 µM [activator, single point]",–
Cc1cccc(N2CCN(C(=O)c3ccc(CS(=O)Cc4cccc(Cl)c4)o3)CC2)c1C (stereo not drawn),"inconclusive: 31.6 µM [activator, single point]",–
O=C(/C=C/c1ccccc1)c1ccc2c(c1)OCO2,–,inactive: -6.06%
COc1ccc(C)cc1NC(=O)CSc1ccc(-c2ccco2)nn1,–,inactive: 32.4%
CCSC1=NC2(CCCCC2)Nc2sc3c(c21)CCCC3,active: 35.5 µM,–
COc1cc(/C=C\C(=O)NCc2ccc3c(c2)cc(C)n3C)cc(OC)c1OC,"inconclusive: 39.8 µM [activator, single point]",–
Cc1ccc(S(=O)(=O)NCCNC(=O)c2cc(OCC(F)(F)F)ccc2OCC(F)(F)F)cc1,–,inactive: 11%
c1ccc(Cn2c(SC3CCCCC3)nnc2-c2cccnc2)cc1,–,inactive: 13.3%
CC1(C)Cc2c(c(N3CCCC3)nc3sc(C(=O)Nc4ccccc4)c(N)c23)CO1,"inconclusive: 14.1 µM [activator, partial curve]",–
COc1cc(C(=O)Nc2ccc(Nc3ccccc3)cc2)cc(OC)c1OC,"inconclusive: 35.5 µM [activator, single point]",–
CC(=O)c1ccc(S(=O)(=O)N2CCn3cccc3C2c2ccc(C)cc2)cc1 (stereo not drawn),"inconclusive: 31.6 µM [activator, single point]",–
O/N=C1\CC/C(=N\O)c2nn(-c3ccc(Cl)cc3Cl)nc21,–,inactive: -5.93%
COc1ccc(CN(Cc2cc3cc4c(cc3[nH]c2=O)OCO4)C(=O)NC2CCCCC2)cc1,"inconclusive: 10 µM [activator, single point]",–
CN1C(=O)Cc2cc(S(=O)(=O)N3CCN(c4ccccc4F)CC3)ccc21,"inconclusive: 50.1 µM [activator, single point]",–
Cc1nc(-n2nc(C)c(Cc3ccccc3Cl)c2C)sc1C(=O)Nc1ccccc1F,–,inactive: 0.227%
COc1ccc(CN=C2NC(=O)CC(C(=O)Nc3ccccc3C)S2)cc1 (stereo not drawn),–,inconclusive: -67.6% [activator]
O=C1C(=Cc2cccc(Cl)c2)CCc2ccccc21,–,inactive: 9.23%
COP(N)(=O)C(CC(C)C)NC(=O)OCc1ccccc1 (stereo not drawn),–,inactive: -5.57%
Cc1ccc(S(=O)(=O)NCc2ccccc2)cc1C(=O)N1CCN(S(=O)(=O)c2ccccc2F)CC1,"inconclusive: 31.6 µM [activator, single point]",–

# Source: PubChem BioAssay AID1347120 (National Center for Advancing Translational Sciences (NCATS), 2019)
